According to the supplement of paper PMC8728848:
The other results are listed elsewhere or left out.

Key:
Test in all cases: glycan array binding signal (z-score within array); higher = stronger binding
Details in all cases: glycan notation: IUPAC condensed, linker removed
[1] = molecular target: Gal(b1-4)GlcNAc(b1-3)[Gal(b1-4)GlcNAc(b1-6)]GalNAc
How it was run: (§1)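 Glycan array binding is given as a within-array Z-score, which can be read as non-binding when negative. The arrays, 3228 of them, came from the Consortium for Functional Glycomics database and were retained only where the protein sequence was available. Z-scores were averaged across arrays of the same protein sequence at different concentrations or buffers and across linkers.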

[2] = molecular target: Gal(b1-4)GlcNAc(b1-6)GalNAc
How it was run: as §1

[3] = molecular target: Gal(b1-4)GlcNAc(b1-6)[Gal(b1-3)]GalNAc
How it was run: as §1

[4] = molecular target: Gal(b1-4)GlcNAc(b1-6)[Gal(b1-3)]GlcNAc
How it was run: as §1

Gal3S(b1-3)GalNAc = molecular target: Gal3S(b1-3)GalNAc
How it was run: as §1

Gal3S(b1-3)GlcNAc = molecular target: Gal3S(b1-3)GlcNAc
How it was run: as §1

[5] = molecular target: Gal3S(b1-3)[Fuc(a1-4)]GlcNAc
How it was run: as §1

Gal3S(b1-4)Glc = molecular target: Gal3S(b1-4)Glc
How it was run: as §1

Gal3S(b1-4)Glc6S = molecular target: Gal3S(b1-4)Glc6S
How it was run: as §1

Gal3S(b1-4)GlcNAc = molecular target: Gal3S(b1-4)GlcNAc
How it was run: as §1

Gal3S(b1-4)GlcNAc6S = molecular target: Gal3S(b1-4)GlcNAc6S
How it was run: as §1

Gal3S6S(b1-4)GlcNAc = molecular target: Gal3S6S(b1-4)GlcNAc
How it was run: as §1

Gal3S6S(b1-4)GlcNAc6S = molecular target: Gal3S6S(b1-4)GlcNAc6S
How it was run: as §1

Gal4S(b1-4)GlcNAc = molecular target: Gal4S(b1-4)GlcNAc
How it was run: as §1

Gal4S6S(b1-4)GlcNAc = molecular target: Gal4S6S(b1-4)GlcNAc
How it was run: as §1

Gal6S(b1-4)Glc = molecular target: Gal6S(b1-4)Glc
How it was run: as §1

Gal6S(b1-4)Glc6S = molecular target: Gal6S(b1-4)Glc6S
How it was run: as §1

Gal6S(b1-4)GlcNAc = molecular target: Gal6S(b1-4)GlcNAc
How it was run: as §1

GalNAc(a1-3)Gal = molecular target: GalNAc(a1-3)Gal
How it was run: as §1

GalNAc(a1-3)GalNAc = molecular target: GalNAc(a1-3)GalNAc
How it was run: as §1

[6] = molecular target: GalNAc(b1-3)Gal(a1-4)Gal(b1-4)GlcNAc
How it was run: as §1

GalNAc(b1-4)GlcNAc = molecular target: GalNAc(b1-4)GlcNAc
How it was run: as §1

Glc(a1-4)Glc = molecular target: Glc(a1-4)Glc
How it was run: as §1

Glc(a1-6)Glc(a1-6)Glc = molecular target: Glc(a1-6)Glc(a1-6)Glc
How it was run: as §1

Glc(b1-4)Glc = molecular target: Glc(b1-4)Glc
How it was run: as §1

Glc(b1-6)Glc = molecular target: Glc(b1-6)Glc
How it was run: as §1

GlcA(b1-3)Gal = molecular target: GlcA(b1-3)Gal
How it was run: as §1

GlcA(b1-6)Gal = molecular target: GlcA(b1-6)Gal
How it was run: as §1

[7] = molecular target: GlcNAc(a1-3)Gal(b1-4)GlcNAc
How it was run: as §1

[8] = molecular target: GlcNAc(a1-6)Gal(b1-4)GlcNAc
How it was run: as §1

[9] = molecular target: GlcNAc(b1-2)Gal(b1-3)GlcNAc
How it was run: as §1

[10] = molecular target: GlcNAc(b1-2)Man(a1-3)[GlcNAc(b1-2)Man(a1-6)]Man(b1-4)GlcNAc(b1-4)GlcNAc
How it was run: as §1

GlcNAc(b1-3)Gal = molecular target: GlcNAc(b1-3)Gal
How it was run: as §1

[11] = molecular target: GlcNAc(b1-3)Gal(b1-3)GalNAc
How it was run: as §1

GlcNAc(b1-3)Gal(b1-4)Glc = molecular target: GlcNAc(b1-3)Gal(b1-4)Glc
How it was run: as §1

[12] = molecular target: GlcNAc(b1-3)Gal(b1-4)GlcNAc
How it was run: as §1

[13] = molecular target: GlcNAc(b1-3)Gal(b1-4)GlcNAc(b1-3)Gal(b1-4)GlcNAc
How it was run: as §1

B1: ASA (Allium sativum) (protein)
chain: KAHEKERMGRNTPSAKLMSIAAVAAILTILASTCMARNLLTNGEGLYAGQSLNVEPYHFIMQEDCNLVLYDHSTAVWATNTDIPGKKECRAVLQSDGNFVVYDADGRPLWASHSVRGNGNYVLVLQEDGNVVIYGSDIWSTGTYVKAARGPVVVAMNGTVDGGSLIRPVIVNKNHVPVIRKVGTLSRNILRNDEGLYAGQSLDVEPYHFIMHEDCNLVLYDHSTAVWASNTDIPGKKGCKAVLQSDGNFVVYDAEGRSLWASHSVRGNGNYVLVLQEDGNVVIYGSDIWSTDTYRKSARGPVIRKVGTLAGAA
[1]
  glycan array binding signal (z-score): -0.173
[2]
  glycan array binding signal (z-score): -0.212
[3]
  glycan array binding signal (z-score): -0.205
[4]
  glycan array binding signal (z-score): -0.217
Gal3S(b1-3)GalNAc
  glycan array binding signal (z-score): -0.229
Gal3S(b1-3)GlcNAc
  glycan array binding signal (z-score): -0.196
[5]
  glycan array binding signal (z-score): -0.162
Gal3S(b1-4)Glc
  glycan array binding signal (z-score): -0.217
Gal3S(b1-4)Glc6S
  glycan array binding signal (z-score): -0.184
Gal3S(b1-4)GlcNAc
  glycan array binding signal (z-score): -0.218
Gal3S(b1-4)GlcNAc6S
  glycan array binding signal (z-score): -0.214
Gal3S6S(b1-4)GlcNAc
  glycan array binding signal (z-score): -0.207
Gal3S6S(b1-4)GlcNAc6S
  glycan array binding signal (z-score): -0.166
Gal4S(b1-4)GlcNAc
  glycan array binding signal (z-score): -0.219
Gal4S6S(b1-4)GlcNAc
  glycan array binding signal (z-score): -0.222
Gal6S(b1-4)Glc
  glycan array binding signal (z-score): -0.201
Gal6S(b1-4)Glc6S
  glycan array binding signal (z-score): -0.199
Gal6S(b1-4)GlcNAc
  glycan array binding signal (z-score): -0.191
GalNAc(a1-3)Gal
  glycan array binding signal (z-score): -0.197
GalNAc(a1-3)GalNAc
  glycan array binding signal (z-score): -0.22
[6]
  glycan array binding signal (z-score): -0.2
GalNAc(b1-4)GlcNAc
  glycan array binding signal (z-score): -0.151
Glc(a1-4)Glc
  glycan array binding signal (z-score): -0.227
Glc(a1-6)Glc(a1-6)Glc
  glycan array binding signal (z-score): -0.228
Glc(b1-4)Glc
  glycan array binding signal (z-score): -0.209
Glc(b1-6)Glc
  glycan array binding signal (z-score): -0.234
GlcA(b1-3)Gal
  glycan array binding signal (z-score): -0.212
GlcA(b1-6)Gal
  glycan array binding signal (z-score): -0.218
[7]
  glycan array binding signal (z-score): -0.228
[8]
  glycan array binding signal (z-score): -0.222
[9]
  glycan array binding signal (z-score): -0.222
[10]
  glycan array binding signal (z-score): -0.204
GlcNAc(b1-3)Gal
  glycan array binding signal (z-score): -0.224
[11]
  glycan array binding signal (z-score): -0.204
GlcNAc(b1-3)Gal(b1-4)Glc
  glycan array binding signal (z-score): -0.216
[12]
  glycan array binding signal (z-score): -0.23
[13]
  glycan array binding signal (z-score): -0.23
